Here are results for 55 molecules from article PMC4336329 (PLoS ONE, 2015).

The whole screen tested about 310,000 compounds, of which about 2,200 (0.71%) showed an effect of 50% or more. Effects have a minus sign here. Some of the results follow.

The target in the test is human ether-à-go-go-related gene (hERG) potassium channel (human, UniProt Q12809). In words: primary screen, population patch clamp on CHO cells stably expressing hERG.
Chain of human ether-à-go-go-related gene (hERG) potassium channel (Q12809 whole entry, looked up): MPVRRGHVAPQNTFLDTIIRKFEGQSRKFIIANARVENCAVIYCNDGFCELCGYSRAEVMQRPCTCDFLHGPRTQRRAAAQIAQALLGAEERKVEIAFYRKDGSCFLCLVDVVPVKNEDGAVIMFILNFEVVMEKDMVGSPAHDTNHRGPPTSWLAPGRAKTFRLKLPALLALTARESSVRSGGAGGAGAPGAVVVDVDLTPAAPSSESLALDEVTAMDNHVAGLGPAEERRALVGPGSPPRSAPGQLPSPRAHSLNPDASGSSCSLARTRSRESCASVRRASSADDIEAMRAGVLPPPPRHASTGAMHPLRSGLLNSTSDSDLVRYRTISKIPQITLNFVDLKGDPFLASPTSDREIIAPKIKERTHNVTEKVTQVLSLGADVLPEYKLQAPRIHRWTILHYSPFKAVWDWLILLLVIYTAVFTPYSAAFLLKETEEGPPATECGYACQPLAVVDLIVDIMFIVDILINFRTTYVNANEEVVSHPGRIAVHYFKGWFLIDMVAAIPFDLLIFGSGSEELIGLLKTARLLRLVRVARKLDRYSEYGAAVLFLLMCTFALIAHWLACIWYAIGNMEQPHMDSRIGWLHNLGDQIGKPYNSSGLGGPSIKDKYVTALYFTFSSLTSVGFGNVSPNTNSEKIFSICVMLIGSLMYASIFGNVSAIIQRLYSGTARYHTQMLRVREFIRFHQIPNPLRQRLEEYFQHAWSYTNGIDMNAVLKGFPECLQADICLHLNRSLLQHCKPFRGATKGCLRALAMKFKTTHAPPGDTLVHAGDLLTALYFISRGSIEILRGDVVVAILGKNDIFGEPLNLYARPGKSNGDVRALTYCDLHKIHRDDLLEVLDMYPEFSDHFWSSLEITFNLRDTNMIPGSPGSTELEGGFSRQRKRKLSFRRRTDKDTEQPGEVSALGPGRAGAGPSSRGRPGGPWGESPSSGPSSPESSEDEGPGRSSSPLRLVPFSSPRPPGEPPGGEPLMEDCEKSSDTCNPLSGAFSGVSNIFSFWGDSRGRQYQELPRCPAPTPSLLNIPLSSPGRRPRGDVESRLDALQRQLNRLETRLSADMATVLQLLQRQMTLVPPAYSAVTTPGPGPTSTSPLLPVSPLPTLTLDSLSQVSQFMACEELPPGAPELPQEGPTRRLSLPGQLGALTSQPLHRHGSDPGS
For the molecule `CC(C)(C)C(=O)Nc1ccc(C(=O)N/N=C/c2ccccc2OC(=O)c2ccccc2)cc1`, the “hERG current change (%, negative = inhibition) at 1uM” value was 12.3%.

Consider `Cc1cc(-c2cc(-c3ccccc3)on2)nc(NCC2CC2)n1`, for which the “hERG current change (%, negative = inhibition) at 1uM” value is on record as 10.1%.

On to `Cc1cc(NC(=O)c2cc(-c3ccc(O)cc3)on2)no1`, for which the “hERG current change (%, negative = inhibition) at 1uM” value was found to be 8.05%.

As to `COc1ccc2c(Cl)c(C(=O)NCC3CCCO3)sc2c1Cl` (stereo not shown), the “hERG current change (%, negative = inhibition) at 1uM” value came to 12.7%.

In the case of `Cc1ccccc1Sc1c(C#N)c(-c2ccccc2)nn1C`, the “hERG current change (%, negative = inhibition) at 1uM” value is listed as 13%.

Take `Cc1cccc(-n2c(SCC(=O)NC3CCCC3)nnc2-c2ccoc2C)c1`: the “hERG current change (%, negative = inhibition) at 1uM” value is -68.6%.

Regarding `CC1=C(C(N)=O)C(c2ccc(Cl)cc2)NC(=O)N1` (stereo not shown), the “hERG current change (%, negative = inhibition) at 1uM” value was -0.388%.

As for `CCCCn1c(=S)[nH]c2cc(S(=O)(=O)N3CCCCC3)ccc21`, the “hERG current change (%, negative = inhibition) at 1uM” value turned out to be 10.8%.

Regarding `COc1ccc(OC)c(NC(=O)C2CCN(S(=O)(=O)c3ccc4c(c3)CC(C)N4C(C)=O)CC2)c1` (stereo not shown), the “hERG current change (%, negative = inhibition) at 1uM” value is -7.33%.

On to `COc1ccc(SCC(=O)Nc2ccccc2Cl)cc1`, for which the “hERG current change (%, negative = inhibition) at 1uM” value is recorded as 14.6%.

Regarding `Cn1nc([N+](=O)[O-])nc1Oc1ccccc1`, the “hERG current change (%, negative = inhibition) at 1uM” value is given as -11.2%.

Turning to `Oc1ccccc1-c1nc2c3ccccc3c3ccccc3c2[nH]1`, the “hERG current change (%, negative = inhibition) at 1uM” value is 9.24%.

For `COc1cccc(OC)c1C(=O)Nc1c(C(=O)N2CCN(c3ccccn3)CC2)oc2ccccc12`, the “hERG current change (%, negative = inhibition) at 1uM” value came to 15.8%.

As for `Cc1cnc(C(=O)OCC(=O)N=c2sccn2Cc2ccccc2Cl)cn1`, the “hERG current change (%, negative = inhibition) at 1uM” value is on record as 14%.

For `COc1ccc([N+](=O)[O-])cc1NC(=O)Cc1noc2ccccc12`, the “hERG current change (%, negative = inhibition) at 1uM” value is given as 4.32%.

On to `CN1C(=O)CC(N2CCN(CC(N)=O)CC2)C1=O` (stereo not shown), for which the “hERG current change (%, negative = inhibition) at 1uM” value stood at 16.4%.

As to `CC(=O)N(CC(O)CO)c1c(I)c(C(=O)NCC(O)CO)c(I)c(C(=O)NCC(O)CO)c1I` (stereo not shown), the “hERG current change (%, negative = inhibition) at 1uM” value was determined as 3.85%.

`O=C(CNC(=O)c1ccccc1F)NNC(=O)c1ccccc1O`: the “hERG current change (%, negative = inhibition) at 1uM” value was found to be 0.202%.

For the molecule `Cc1ccc(C(=O)NC2CCCc3ccccc32)o1` (stereo not shown), the “hERG current change (%, negative = inhibition) at 1uM” value is -7.4%.

In the case of `N=c1c(C(=O)NCc2ccco2)cc2c(=O)n3ccccc3nc2n1Cc1ccccc1`, the “hERG current change (%, negative = inhibition) at 1uM” value was -81.6%.

As for `CN1CCc2c(sc(NC(=O)Cc3ccccc3)c2C(N)=O)C1.Cl`, the “hERG current change (%, negative = inhibition) at 1uM” value is on record as -0.304%.

On to `COc1cccc(CNC(=O)CCNS(=O)(=O)c2ccc(C)cc2)c1`, for which the “hERG current change (%, negative = inhibition) at 1uM” value was found to be 6.83%.

On to `CCOC1(C)OCC(=O)[C@]2(CCC3C4CCC5=CC(=O)C=CC5(C)C4C(=O)CC32C)O1` (stereo partly shown), for which the “hERG current change (%, negative = inhibition) at 1uM” value is given as 10.6%.

With `S=c1[nH]nc(-c2ccc(Cl)cc2)n1/N=C/c1ccco1`, the “hERG current change (%, negative = inhibition) at 1uM” value worked out at 14.7%.

Regarding `Cc1cc(=O)[nH]c(SCc2cc(=O)n3nc(C)sc3n2)n1`, the “hERG current change (%, negative = inhibition) at 1uM” value worked out at 11.6%.

As to `C[C@H]1CCC(=O)N([C@H](CSc2ccccc2)Cc2ccccc2)CC1`, the “hERG current change (%, negative = inhibition) at 1uM” value is reported as 2.76%.

With `Cc1cc(C(F)(F)F)nc(NCc2ccc(F)cc2)n1`, the “hERG current change (%, negative = inhibition) at 1uM” value was 17.9%.

For `O=C(CCn1c(=O)oc2ccccc21)N1CCC2(CC1)OCCO2`, the “hERG current change (%, negative = inhibition) at 1uM” value is recorded as 13.2%.

For the molecule `C#CCCCc1nc2ccccc2c(=O)n1N`, the “hERG current change (%, negative = inhibition) at 1uM” value amounted to 14.6%.

Consider `CCCSc1ccc([C@@H]2[C@@H]3C(=O)N(C)C(=O)[C@@H]3[C@]3(C(=O)OC)CCCN23)cc1OC.O=C(O)C(F)(F)F`, for which the “hERG current change (%, negative = inhibition) at 1uM” value is -4.11%.

As to `Cn1c(CCCOc2ccc(Cl)cc2Cl)nnc1SCC(=O)Nc1nccs1`, the “hERG current change (%, negative = inhibition) at 1uM” value was -7.17%.

For the molecule `COC(=O)[C@@]12CCCCN1[C@H](c1ccc(-c3cccc(Cl)c3)c(OC)c1)[C@H]1C(=O)N(C)C(=O)[C@H]12.O=C(O)C(F)(F)F`, the “hERG current change (%, negative = inhibition) at 1uM” value is -0.257%.

Turning to `O=C(Nc1cccc2ccccc12)/C(=C/c1ccc([N+](=O)[O-])cc1)NC(=O)c1ccccc1`, the “hERG current change (%, negative = inhibition) at 1uM” value is recorded as -8.4%.

Consider `CC(Nc1ccccc1)C(=O)Nc1ccc(F)cc1` (stereo not shown), for which the “hERG current change (%, negative = inhibition) at 1uM” value is listed as -14.8%.

Consider `CCN(CC)S(=O)(=O)c1cccc(NC(=O)CN(C)C2CCCCC2)c1`, for which the “hERG current change (%, negative = inhibition) at 1uM” value is 13.9%.

Regarding `Cc1ccc(NC(=O)CN(C)Cc2ccc(F)cc2)c([N+](=O)[O-])c1`, the “hERG current change (%, negative = inhibition) at 1uM” value was determined as 8.08%.

Regarding `COc1cc(S(=O)(=O)NCC2CCCO2)c(OC)cc1Cl` (stereo not shown), the “hERG current change (%, negative = inhibition) at 1uM” value is on record as 6.04%.

For `COc1ccc(-c2csc(NC(=O)C3=COCCO3)n2)c(OC)c1`, the “hERG current change (%, negative = inhibition) at 1uM” value is -5.4%.

Consider `O=C(/C=C/c1ccccc1Cl)N1CCN(c2ncccn2)CC1`, for which the “hERG current change (%, negative = inhibition) at 1uM” value was 7.12%.

Turning to `CCC(CC)NC(=O)C1CCN(S(=O)(=O)c2cccs2)CC1`, the “hERG current change (%, negative = inhibition) at 1uM” value came to 0.487%.

As for `CN(CC1CCOCC1)C(=O)CC1C(=O)NCCN1C/C=C/c1ccccc1` (stereo not shown), the “hERG current change (%, negative = inhibition) at 1uM” value was determined as 10.6%.

In the case of `CCOC(=O)c1oc2c(O)c(O)ccc2c(=O)c1-c1nncn1-c1ccccc1`, the “hERG current change (%, negative = inhibition) at 1uM” value came out at 10.4%.

Regarding `O=C(NCc1cccs1)C1CCCN1C(=O)Nc1ccccc1` (stereo not shown), the “hERG current change (%, negative = inhibition) at 1uM” value was found to be 15%.

Turning to `CNC(=O)c1cccn(Cc2ccc(C(F)(F)F)cc2)c1=O`, the “hERG current change (%, negative = inhibition) at 1uM” value is on record as 25.7%.

With `COc1cc(CNC(=O)CCCC/C=C\C(C)C)ccc1O`, the “hERG current change (%, negative = inhibition) at 1uM” value worked out at 10.9%.

With `Cc1cc(Cl)ccc1OCC(=O)NNC(=O)c1ccco1`, the “hERG current change (%, negative = inhibition) at 1uM” value is reported as 16.8%.

As for `Nc1ncnc2c1ncn2[C@@H]1O[C@H](CO)C[C@@H]1O.O`, the “hERG current change (%, negative = inhibition) at 1uM” value is recorded as -1.06%.

Turning to `Cc1ccc(-c2nnc(Nc3ccc(C(=O)N(C)C)cc3)c3ccccc23)cc1S(N)(=O)=O`, the “hERG current change (%, negative = inhibition) at 1uM” value is on record as 12.3%.

Regarding `O=C(C1CCCN(S(=O)(=O)c2ccccc2[N+](=O)[O-])C1)N1CCN(c2ccccc2)CC1` (stereo not shown), the “hERG current change (%, negative = inhibition) at 1uM” value was -6.27%.

On to `Cc1ccc2c(c1)nnn2C1CCN(CC(=O)Nc2ccc(F)cc2)CC1`, for which the “hERG current change (%, negative = inhibition) at 1uM” value is reported as -20.7%.

As for `Cc1cc(C)cc(NC(=O)CCc2nc3sc4c(c3c(=O)[nH]2)CCCC4)c1`, the “hERG current change (%, negative = inhibition) at 1uM” value was -7.22%.

As to `CC(=O)Nc1cccc(C(=O)N/N=C/c2ccc(C)o2)c1`, the “hERG current change (%, negative = inhibition) at 1uM” value came out at 15.7%.

Take `NC1=NC(=O)/C(=C/C=C/c2cccs2)S1`: the “hERG current change (%, negative = inhibition) at 1uM” value is 10.4%.

As for `CC(C)CN1CC(=O)N2C(c3ccccc3)c3[nH]c4ccccc4c3C[C@H]2C1=O` (stereo partly shown), the “hERG current change (%, negative = inhibition) at 1uM” value turned out to be 15.6%.

As for `O=C(NCC1(N2CCOCC2)CCCCC1)c1cccc(S(=O)(=O)Nc2ccc(F)cc2)c1`, the “hERG current change (%, negative = inhibition) at 1uM” value is 13%.
